Among all 310,000 compounds or so, about 2,200 (0.71%) showed an effect of 50% or more. The effect is printed as a negative number. The list shows a part of the results.
target: human ether-à-go-go-related gene (hERG) potassium channel (human, UniProt Q12809); assay: primary screen, population patch clamp on CHO cells stably expressing hERG
Sequence (Q12809 whole entry, looked up): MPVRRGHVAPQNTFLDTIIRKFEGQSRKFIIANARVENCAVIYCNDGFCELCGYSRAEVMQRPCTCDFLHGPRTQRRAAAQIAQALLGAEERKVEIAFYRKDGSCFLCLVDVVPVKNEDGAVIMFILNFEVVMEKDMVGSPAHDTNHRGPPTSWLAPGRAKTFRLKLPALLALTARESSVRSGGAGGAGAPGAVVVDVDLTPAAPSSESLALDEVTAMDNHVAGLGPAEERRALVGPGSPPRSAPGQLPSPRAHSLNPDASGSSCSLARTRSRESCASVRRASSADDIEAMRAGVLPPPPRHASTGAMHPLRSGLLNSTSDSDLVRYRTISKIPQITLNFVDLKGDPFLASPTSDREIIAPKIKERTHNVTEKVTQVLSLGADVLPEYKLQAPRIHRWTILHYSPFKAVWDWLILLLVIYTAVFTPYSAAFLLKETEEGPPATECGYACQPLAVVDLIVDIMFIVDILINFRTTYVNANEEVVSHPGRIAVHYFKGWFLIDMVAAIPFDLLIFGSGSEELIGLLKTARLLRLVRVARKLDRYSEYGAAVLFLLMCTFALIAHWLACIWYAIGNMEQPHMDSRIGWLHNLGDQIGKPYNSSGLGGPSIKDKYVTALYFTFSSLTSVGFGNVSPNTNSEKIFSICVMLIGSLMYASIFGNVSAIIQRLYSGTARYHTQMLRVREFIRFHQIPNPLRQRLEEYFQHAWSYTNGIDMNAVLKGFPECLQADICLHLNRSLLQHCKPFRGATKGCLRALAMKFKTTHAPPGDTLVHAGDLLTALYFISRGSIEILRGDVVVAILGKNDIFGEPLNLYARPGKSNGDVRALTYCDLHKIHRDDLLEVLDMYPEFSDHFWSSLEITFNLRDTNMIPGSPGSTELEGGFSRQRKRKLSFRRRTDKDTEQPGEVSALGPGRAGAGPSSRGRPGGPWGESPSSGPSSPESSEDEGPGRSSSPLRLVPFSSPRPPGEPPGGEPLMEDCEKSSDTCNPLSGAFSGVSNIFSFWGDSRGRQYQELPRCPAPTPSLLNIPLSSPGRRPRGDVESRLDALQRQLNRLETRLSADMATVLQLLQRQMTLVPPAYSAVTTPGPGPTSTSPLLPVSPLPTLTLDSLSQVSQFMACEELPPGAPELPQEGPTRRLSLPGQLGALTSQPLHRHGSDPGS

Structure (SMILES) | hERG current change (%, negative = inhibition) at 1uM
CCOc1ccc(S(=O)(=O)Nc2ccc(C(=O)NCC(c3ccco3)N3CCCCC3)cc2)cc1 (centres unmarked) | 16.3%
CCn1c(SCC(=O)N2CCOCC2)nnc1-c1ccco1 | 6.09%
O=C(COc1ccccc1)NNC(=S)NC(=O)c1ccccc1 | 12.1%
Cc1cc(C)c(NC(=O)COC(=O)C2CCC(=O)N2)c(C)c1 (centres unmarked) | -4.44%
CS(=O)(=O)N(CC(=O)NCc1cccnc1)Cc1ccc(Cl)cc1 | -10.8%
Cc1cccc(CSc2ncnc3c2cnn3Cc2ccccc2)c1 | 15.9%
CC(C)C(NC(=O)c1ccccc1)C(=O)OCC(=O)N1CCCCC1 (centres unmarked) | 22.3%
COc1cccc(OC)c1C(=O)OCC(=O)N(C)c1ccccc1 | 11.7%
COc1ccc(CC(=O)Nc2ccc(F)c(F)c2F)cc1S(=O)(=O)N1CCOCC1 | 1.54%
CC(C)CNC(=O)C1CCN(c2ccc(S(=O)(=O)N3CCOCC3)cc2)CC1 | -0.364%
COC(=O)c1cc(NC(=S)NC(=O)c2ccccc2)ccc1N1CCOCC1 | 3.62%
Cc1ccccc1C(=O)N(CC(=O)Nc1sc(C)c(C)c1C(N)=O)C1CCCC1 | 7.19%
CCN(CC)CCCN1CC(O)=C(c2nc3ccccc3s2)C1=N | -4.97%
COC(=O)c1c(NC(=O)Cc2cccs2)sc(C)c1C | -11.3%
COc1ccc2oc(C(=O)OCC(=O)NCCc3ccc(S(N)(=O)=O)cc3)c(C)c2c1 | 24.6%
Cc1ccc(/C=C2/C(=N)N3N=C(CC(=O)N4CCCC4)SC3=NC2=O)cc1 | 12.1%
O=C1c2ccccc2CN1CCNS(=O)(=O)c1ccc2ccccc2c1 | 2.77%
CCn1c(SCC(=O)Nc2ccc3[nH]c(=O)[nH]c3c2)nnc1-c1ccccc1 | 0.517%
CCNc1nc(NC(C)C)nc(N(C#N)C(C)C(=O)N(CC)CC)n1 (centres unmarked) | 4.95%
CCCCNC(=S)NC(C)(C)CO | 10.1%
COCCn1c(C2CCCCC2)nc2sc3ccccc3c(=O)c2c1=O | 5.12%
Cc1ccc(S(=O)(=O)NCCCNS(=O)(=O)c2ccccc2)cc1 | 3.78%
Clc1ccc(-c2onc3c2CCCC3)cc1 | 11%

Structure (SMILES) | hERG current change (%, negative = inhibition) at 1uM
Cc1ccc(Sc2ncccc2/C=N/O)cc1 | 3.26%
CC(C)(C)N(Cc1ccccc1)C(=O)COc1cccnc1[N+](=O)[O-] | 14.4%
Cc1cc2c(cc1S(=O)(=O)NCc1ccc(N(C)C)cc1)OCC(=O)N2 | -6.92%
CCn1cc(CN2CCC(n3nccc3NC(=O)CCOc3ccccc3)CC2)c(C)n1 | 15.4%
COc1ccc(C(C(=O)NCC2CCCO2)N(Cc2ccccc2)C(=O)c2snc(C(N)=O)c2N)cc1OC (centres unmarked) | 8.92%
COCCCN(C(=S)Nc1cccc(Cl)c1)C(C)c1ccncc1 (centres unmarked) | -0.116%
CCOC(=O)C1(Cc2cccc(F)c2)CCN(CCCn2cccn2)CC1 | -51.2%
COc1ccc(CN(C(=O)c2snc(C(N)=O)c2N)C(C(=O)NC(C)(C)C)c2ccco2)cc1 (centres unmarked) | 3.06%
NC(=O)[C@@H]1CCCN1Cc1nc(Cc2ccccc2Cl)no1 | 4.87%
CC(C)CCNC(=O)C1CCC(CNS(=O)(=O)c2ccc(Cl)cc2)CC1 (centres unmarked) | 16.2%
CCc1nccn1S(=O)(=O)c1ccc(C)c(C)c1 | 4.29%
Cc1c(C(=O)NCc2ccco2)oc2c(Cl)cccc12 | 20.8%
CCOc1ccc(N2C(=O)S/C(=C\c3ccc(O)c(OC)c3)C2=O)cc1 | -3.85%
N#CCc1ccc(C(=O)c2ccccc2)s1 | 5.58%
Cc1ccc(CSCC2Nc3ccc(C(=O)N4CCN(c5cccc(C)c5)C(C)C4)cc3NC2=O)cc1 (centres unmarked) | 23.1%
O=C(NCCOc1ccccc1F)c1cc([N+](=O)[O-])ccc1N1CCOCC1 | -9.33%
Cc1ccc(Cl)c(OCC(=O)OCC(=O)NC2CCCc3ccccc32)c1 (centres unmarked) | 6.96%
Cc1nnc(Sc2nc3c(c(=O)[nH]c(=O)n3C)n2CCc2ccccc2)s1 | 1.69%
Cc1ccccc1C(O)c1ccncc1 (centres unmarked) | 10.5%
CCO[C@H]1OC(C(=O)NCc2nc3ccccc3[nH]2)=C[C@@H](c2ccc3c(c2)OCO3)[C@@H]1CCCO | 0.543%
Cc1ccc(S(=O)(=O)N2CCOCC2)cc1NC(=O)COC(=O)c1ccc(OCc2c(C)noc2C)cc1 | -0.389%
CCCCC(=O)NC(NC(=S)N1CCCCCC1)C(Cl)(Cl)Cl (centres unmarked) | 12.4%
Cc1ccc(C(=O)N2CCN(Cc3nc4sc5c(c4c(=O)[nH]3)CCCC5)CC2)cc1 | -36.9%

Structure (SMILES) | hERG current change (%, negative = inhibition) at 1uM
Cc1nccnc1Sc1ccccc1 | 8.26%
CCc1nnc(NC(=O)CSc2nnc(C)n2Cc2ccccc2)s1 | 1.89%
COc1cc(-n2c(=O)c3ccccc3n(Cc3ccccc3)c2=O)cc(OC)c1OC | 4.49%
Fc1cccc(Cc2noc(CN3CCOCC3)n2)c1 | 10.8%
CCN1C(=O)c2ccc(C(=O)NCc3ccco3)cc2C1=O | 11%
Cc1ccc(CN2CCN(Cc3cccn3-c3ccc(Cl)cn3)CC2CCO)o1 (centres unmarked) | 0.259%
CCN(CC)CCCN(C(=O)c1ccccc1F)c1nc(-c2ccc(OC)cc2)cs1 | -28.8%
CCCC(=O)c1ccc(N2CCC(C)CC2)c(F)c1 | 2.18%
COCCN(C(=O)COc1ccccc1)c1nnc(-c2cccnc2)s1 | 6.25%
CCOc1ccc(NC(=O)CSc2nc(N)c(-c3ccccc3)c(=O)[nH]2)cc1 | 9.49%
C/C(N)=C(/C#N)C(=O)CSc1nncn1-c1ccccc1 | 12.4%
O=C(c1cc(COc2c(F)cccc2F)on1)N1CCN(C2CCCCC2)CC1 | -0.235%
O=C1CCN(Cc2ccc(Br)cc2)CCN1[C@H](CO)c1ccccc1 | 9.52%
Fc1cccc(CSc2ccc3nnc(-c4ccccn4)n3n2)c1 | -50.2%
Cc1[nH]c2ccccc2c1/C=N/Nc1ccc([N+](=O)[O-])cc1 | 5.5%
COC1(OC)C(/C=C/c2ccc(Cl)cc2)C(C#N)(C#N)C1(OC)OC (centres unmarked) | 8.36%
CCN1CCN(C(=O)c2ccc3nc(-c4ccccc4)c(-c4ccccc4)nc3c2)CC1 | 6.96%
Cc1cc(C)c2c(=O)[nH]cnc2n1 | 1.94%
COc1ccc(-c2nc(CC(=O)Nc3cccc(S(=O)(=O)NC4=NCCC4)c3)cs2)cc1 | 16.5%
N#Cc1ncc(C(F)(F)F)cc1Oc1cccnc1 | 5.55%
Nn1c(Cc2cccc3ccccc23)nnc1SCc1ccccc1 | 10.2%
Fc1ccccc1-c1nnc2ccc3ccccc3n12 | 9.87%
Fc1cc(Br)ccc1Nc1nc2ccccc2n2nnnc12 | 5.3%

Structure (SMILES) | hERG current change (%, negative = inhibition) at 1uM
Cl.O=C(CN1CCN(c2ncccn2)CC1)NCCC1=CCCCC1 | 5.16%
COC(=O)c1ccccc1NC(=S)NC(=O)c1cccc2ccccc12 | 7.96%
O=C(N/N=C/c1ccccc1O)c1cc[n+]([O-])cc1 | 9.42%
CCOC(=O)c1sc(=S)n(Cc2ccccc2)c1N | 8.2%
Oc1ccc(/C=N/N2CCCCC2)cc1O | 14.2%
CCOc1ccccc1NC(=O)CCN1CCN(S(=O)(=O)c2ccc(OC)cc2)CC1 | 2.22%
Cc1cc(SC(C)C(=O)Nc2ncc(Cl)cc2Cl)nc2ccccc12 (centres unmarked) | 12.1%
CC(=O)Nc1ccc(NC(=O)CN(C)CC(=O)Nc2ccccc2Br)cc1 | 4.27%
COc1cccc(N2CC(C)Cn3c2nc2c3c(=O)[nH]c(=O)n2C)c1 (centres unmarked) | 4.5%
Cc1ccc(-c2nc(CS(=O)(=O)CC(=O)N3CCCCCC3)c(C)o2)cc1 | 5.45%
COC(=O)c1ccc(NC(=O)c2ccc[n+]([O-])c2)cc1 | 13.1%
N#Cc1nc(-c2ccco2)oc1N1CCN(c2ccccc2)CC1 | -25.8%
CCCCn1c(N)c(N(CCOC)C(=O)c2ccc(S(=O)(=O)N3CCCCCC3)cc2)c(=O)[nH]c1=O | 8.4%
Cc1ccc([N+](=O)[O-])cc1S(=O)(=O)NCc1cccnc1 | 2.16%
Cc1cc(C)cc(NC(=S)NCCc2c[nH]c3ccccc23)c1 | 0.452%
O=C(CSC1=Nc2ccccc2C2=NC(CC(=O)N3CCN(c4ccccc4)CC3)C(=O)N12)NCC1CCCO1 (centres unmarked) | 10.3%
NS(=O)(=O)c1ccc(N/N=C2/CCCCC2C2CCCCC2)c([N+](=O)[O-])c1 (centres unmarked) | 14.4%
Cc1ccc(NC(=O)CSc2nnc(CNC(=O)c3ccco3)n2C)cc1C | 4.25%
COc1ccc(S(=O)(=O)N(CC(=O)NCC2CCCO2)C2CCCCC2)cc1OC (centres unmarked) | 13.4%
COC(=O)CSc1nnc(CNc2ccc(F)cc2)o1 | 11.8%

Reference: article PMC4336329 (PLoS ONE, 2015)
